PubChem BioAssay AID493208 (National Center for Advancing Translational Sciences (NCATS), 2011)
About 340 (0.77%) of roughly 44,000 compounds were called active. Inconclusive results (about 5%) are left out. Calls follow the shape of the dose curve; as a rule, active = well fitted inhibition curve with a large enough effect; inconclusive = small, poorly fitted or top-dose-only effect; inactive = flat fitted curve, though single readings scatter. Some of the results follow.

Test: Acumen qHTS Assay for Inhibitors of the mTORC1 Signaling Pathway in MEF (Tsc2-/-, p53-/-) Cells: Sytravon;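 also: plate controls were DMSO for no effect and rapamycin for full effect; nearly all actives have a fitted effect of over 50% in size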
Conditions: phospho-rpS6 immunofluorescence/PI, 24 h; series mostly up to 38.3 µM; activity change, negative = inhibition: at the top concentration
Procedure, shortened: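 Readout is phospho-S6 Alexa 488 signal normalized to PI per well, reported as % active cells with thresholds set from rapamycin (7.5 nM) and DMSO controls. Cells: Tsc2-/-, p53-/- MEFs, 24 hrs compound at 37 C; PI cell number serves as viability.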

Activity change, negative = inhibition, inactive:
COc1cccc(CNc2ncc(-c3ccc(Br)cc3)n2C)c1 -18.5%
Cc1cccc(C(=O)Nc2cc3c(cc2N2CCOCC2)n(C)c(=O)n3C)c1 1.4%
O=C(O)CC(NS(=O)(=O)c1ccc(Br)s1)c1ccccc1 (stereo unspecified) 6.91%
CCOc1ccc(NC(=O)Cn2cc(C(=O)c3ccc(C)cc3)c(=O)c3cc4c(cc32)OCCO4)cc1 -12.1%
O=C(NCCCN1CCN(c2ccccc2)CC1)c1nnc(Cc2ccc(F)cc2)o1 -10.1%
CCN1C(C(=O)c2ccccc2)=C(OC(=O)COc2ccccc2)c2ccccc2S1(=O)=O -10%
Nc1c(-c2nc(-c3ccccc3)cs2)c2ccccn2c1C(=O)c1ccc2c(c1)OCO2 -0.872%
CC1=C(C(=O)Nc2cc(C)ccc2C)C2(CCCCCC2)OC1=O -2.08%
Cc1cc(C)c(S(=O)(=O)N2CCN(Cc3nc4ccc(C)cc4o3)CC2)c(C)c1 31.7%
CCOCCCNC(=O)Nc1cc(C(=O)NCc2ccc(C(C)C)cc2)ccc1N1CCCC1 0%
CC(C)OCCCN(C)C1CCN(S(=O)(=O)c2csc(C(N)=O)c2)CC1 0%
Cc1ccc(N2CCN(S(=O)(=O)c3ccc4oc(=O)c5ncn(C)c5c4c3)CC2)c(C)c1 -16.9%
COc1ccc(-n2c(C)nc3cc(C(=O)NC4CCCC4)ccc32)cc1 -0.118%
CSc1cccc(NC(=O)Cn2nc(C)c3sc4ccccc4c3c2=O)c1 -4.35%
COc1cc2c(cc1OC)C(COc1ccc(F)cc1)N(C(=O)c1ccccc1F)CC2 (stereo unspecified) 10.6%
CC(=O)c1ccc(C(=O)N(Cc2cccnc2)c2nc3c(Cl)cccc3s2)cc1 -0.602%
Cc1cc(C)cc(NC(=O)C2CCN(c3cc(C)nc4c(-c5ccc(Cl)cc5)c(C)nn34)CC2)c1 -0.666%
Cc1ccc(S(=O)(=O)c2nnn3c2nc(NCc2cccs2)c2sccc23)cc1C -0.619%
COC(=O)C(C)NC(=O)N1CCN(c2nnc(C)c3c(C)n(-c4ccc(Cl)cc4)nc23)CC1 (stereo unspecified) -4.71%
Cn1nnnc1SCCNCc1ccccc1OCc1ccc(Cl)cc1Cl -4.88%
Cc1ccc(C)c(NS(=O)(=O)c2ccc3c(c2)n(C)c(=O)n3C)c1 -0.56%
COc1ccc(-c2noc(Cn3c(=O)c4ccccc4n(CC(=O)Nc4cccc(C(F)(F)F)c4)c3=O)n2)cc1 -12%
CC(C)NC(=O)N1CCC(N2CCN(Cc3ccc(F)cc3)C(=O)C2=O)CC1 -1.78%
CCOc1ccc(N(CC)S(=O)(=O)N2CCCC(C(=O)NCc3ccc(Cl)cc3)C2)cc1 (stereo unspecified) -10.1%
O=C(Cc1ccc(F)cc1)NCCc1csc(-c2cccc(F)c2)n1 2.03%
Cc1ccccc1-c1nc(CS(=O)(=O)CC(=O)Nc2cccc(C(F)(F)F)c2)c(C)o1 -0.164%
COc1ccc2c(c1)c1c(c(=O)n(Cc3ccccc3)c(=O)n1CC(=O)Nc1c(C)cccc1C)n2C -4.25%
Cc1ccc(S(=O)(=O)NCCc2sc3nc(-c4ccccc4)nn3c2C)cc1C -13.5%
O=C(c1cccc(Cl)c1)N(Cc1ccco1)Cc1ccccc1Cl 3.97%
CCc1nc2onc(C)c2c(=O)n1CC(=O)O 0.755%
CCn1c(SCC(=O)N2CCC(C)CC2)nnc1-c1ccccc1O -6.94%
O=S(=O)(Nc1cccc(-c2ccc(N3CCCCCC3)nn2)c1)c1ccccc1 -3.24%
Cc1oc(-c2cccc(Br)c2)nc1Cn1c(=O)cc(-c2ccccc2)c2c(C)nn(C)c21 -8.04%
COc1ccccc1NC(=O)C1=C(C)Nc2nc3ccccc3n2C1c1cccc(Br)c1 (stereo unspecified) 2.77%
COc1ccc(N2CCN(Cc3cc(=O)oc4ccc(OC)cc34)CC2)cc1 4.92%
CCc1ccccc1Nc1cc(C(=O)NCCc2ccccc2)c2ccccc2n1 -8.71%
CCCOc1ccc(Nc2cc(C)nc(C)n2)cc1 -11.1%
O=C(Cn1c(=O)n(-c2ccc(F)cc2)c(=O)c2sc3ccccc3c21)NC1CCCCC1 -1.88%
CCOC(=O)c1ccc2c(c1)N(Cc1cccc(C(F)(F)F)c1)C(=O)c1ccccc1S2(=O)=O 1.75%
O=C(NCC(c1cccnc1)N1CCOCC1)C(=O)Nc1ccc(F)cc1 (stereo unspecified) -11.2%
CCCn1ccc2c(OCC(=O)Nc3ccccc3OCC)cccc2c1=O -6.59%
Cn1c(SCc2cccc(F)c2)nc2c([nH]c3ccccc32)c1=O 0.275%
COc1ccc(OC)c(CCNc2nccn(-c3ccc(C)c(C)c3)c2=O)c1 -4.52%
Cc1ccc(CNC(=O)CCC(=O)N2Cc3ccccc3Oc3ncccc32)cc1 -3.11%
COc1ccc(Cn2c(=O)[nH]c3cc(C(=O)N4CCN(c5ccccc5)CC4)ccc3c2=O)cc1 -0.727%
COc1ccc(CCNC(=O)C2CCN(c3nc4ccccc4nc3C(F)(F)F)CC2)cc1OC 3.28%
O=C(Nc1ccc2nc(SCC(=O)N3CCCc4ccccc43)sc2c1)c1cccc(Cl)c1 0%
COCCCNS(=O)(=O)c1ccc(N2CCCCS2(=O)=O)cc1 0%
Cc1ccc(NC(=O)CN2C(=O)CSc3ccc(S(=O)(=O)N4CCCC4)cc32)c(C)c1 2.87%
COc1ccc(C(=O)Oc2c(Sc3ccccc3)c(C)nn2-c2ccccc2)cc1OC -17%
COc1ccc(NC(=O)C2=C(C)C(=O)OC23CCN(C(C)C)CC3)cc1Cl -3.67%
CC(=O)OCc1cnc(C)c2oc(=O)c(C(=O)Nc3ccc(C)cc3Cl)cc12 5.63%
CC1CCC(Nc2ncnc3onc(-c4ccc(Cl)cc4)c23)CC1 (stereo unspecified) -6.04%
COc1ccc(-c2coc3c2c(C)cc2oc(=O)c(C)c(C)c23)cc1 4.94%
Cc1ccc(CNC(=O)c2oc3ccc(S(=O)(=O)N4CCC(C)CC4)cc3c2C)cc1 -14.6%
CCCCN1C(=O)CN(C2CCCCCC2)C(=O)C1c1ccc(OC(C)C)c(OC)c1 (stereo unspecified) -7.06%
Cc1cccc(OCC(=O)Nc2ccc3nc(Nc4cccc(C(F)(F)F)c4)cc(C)c3c2)c1 0.488%
CCCCNC(=O)c1cc2c(=O)n3cccc(C)c3nc2s1 7.47%
COc1ccccc1CNC(=O)c1ccc2c(c1)N(Cc1cc(C)ccc1C)C(=O)c1ccccc1S2 5.41%
COc1ccc(-c2cc(C(F)(F)F)n3nc(C(=O)O)c(Cl)c3n2)cc1OC 0.146%
CCOc1ccc(NC(=O)Cn2cc(C(=O)c3ccc(F)cc3)c(=O)c3cc4c(cc32)OCCO4)cc1 -6.43%
